Whole data set: some 33,000 sequences, median “E-score (-0.5 to 0.5)” near -0.054, cut for the highest 2% near 0.39. This is one part of the list.
Target: Ylr278c (UniProt Q05854)
Assay: PBM E-score (8-mer binding enrichment) (E-score (-0.5 to 0.5)); higher = stronger / more preferred TF binding; most listed sequences are background and not binding sites
Conditions: protein concentration: 200 nM; construct: GST-DNA-binding domain
How it was run: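 E-scores (a modified Wilcoxon-Mann-Whitney statistic) were assigned by the Universal PBM Analysis Suite to every ungapped eight-base word pooled with its reverse complement. The input came from universal all-10-mer Agilent arrays made double-stranded by primer extension and probed with GST-tagged yeast transcription factors at about 100-200 nM. Fluorescent anti-GST detected bound protein, and masliner normalised the scans.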

Sequence	PBM E-score
ATAATCGC	0.00024
GTGTTATA	-0.101
CCAAAAAG	-0.111
ACCACGGG	0.076
AATTTTAC	0.0636
CCGCCGCG	0.347
ATCCTTTG	-0.118
ACCTTTTA	-0.217
GATCGGCC	0.226
GTATGCAC	-0.125
CACTTTTC	0.11
ATGCCCGG	0.345
AAAATCCT	0.0735
CCTGGATA	-0.149
ACCAGCTC	-0.13
CGTCAACG	0.0817
ACATCGCG	0.0985
TAAGTTAA	-0.0777
GATTGTGC	0.0423
CCTGCCGC	-0.0615
TCGGTAAA	0.199
ACTGACGA	-0.167
AGATACTC	-0.016
AGTCTCCG	0.434

Sequence	PBM E-score
GCTGCCAC	0.00937
AAGGACAT	-0.204
GAAAAATA	0.0789
GAGTACTC	0.0459
GCAGTGTA	-0.203
AACACTCA	0.0548
AGGAGCCA	-0.297
TGGTGGAA	-0.0956
ACAGGCCG	0.156
GTAAAAGA	-0.136
ACCAAAGT	-0.0748
AACCAGTG	-0.11
CGAAGCAG	0.0313
TTCCTCAA	-0.0792
ACAGCTGG	-0.0998
GAAAGCGC	0.06
GAACCTTC	-0.0979
CCTAGACG	-0.0786
CTAATTTA	-0.0718
CACTGCAG	-0.143
AGATTCGC	-0.0847
ATACCACG	0.022
ATGGCGTG	-0.206
CGTGTACA	-0.144

Sequence	PBM E-score
CACTTTAA	0.0526
CGGTAAAA	0.256
GACCTGCC	-0.0574
CACTAACG	-0.17
CCTTCCTC	-0.149
GCGTGACC	-0.0159
GAATATTC	0.135
AAGCCCAA	-0.0867
CACAGAGA	-0.156
CAATCTAG	-0.0575
CAACCGGA	0.414
AACGTGGC	-0.0871
ACTCGGGA	0.24
CGATCCGC	0.241
AGTATTAC	-0.0424
CCCTCAGG	-0.219
ACTGAAAT	-0.168
ATGATGTC	0.0944
AGTTACTG	0.0764
AGAAATGG	-0.0667
CCTGGCTA	-0.265
CACAAGGC	-0.0453
CAGGAGTC	0.055
TGAGCTCA	0.0455

Sequence	PBM E-score
CACATGTG	-0.206
CATCAACA	0.0398
AGACTGGA	-0.176
AATGTCCG	0.458
GAAAGCCA	-0.115
CTGTCACA	-0.218
AAAAATTA	0.0229
ATGCGTGC	-0.188
GAATGTCC	0.219
AAGGATCA	-0.168
ATGAAGAC	-0.204
AACTTTAA	0.0291
TAGCTGGA	-0.361
GGGAGCTA	-0.0279
CGTACGCC	0.181
ATAAGGCA	-0.168
CTCGTGGA	-0.0362
GAGCGTGA	-0.0208
ATGAGTTG	0.0404
ATGTAGAA	-0.0637
AAATCGCC	0.175
CAATCAAG	-0.205

Source: the supplement of paper PMC3334620
